In all, about 360,000 compounds went through this assay and about 6,000 (1.7%) were called active. The shares of active, inactive and inconclusive entries below differ from those in the screen. The call rests on the fitted dose curve; in most records, active means well fitted cell-killing curve with a large enough effect; inconclusive means small, poorly fitted or top-dose-only effect, or effect the other way; inactive means flat fitted curve, though single readings scatter. No potency is given beside an inconclusive call; the fits are too rough.
Assay: qHTS for induction of synthetic lethality in tumor cells producing 2HG: qHTS for the HT-1080-NT fibrosarcoma cell line;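 further: NT is the 2HG producing partner of a matched IDH1 knockdown line; nearly all actives have a fitted effect of over 55% in size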;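 on activity, negative = less viability: 0% = DMSO-treated cells and -100% = media-only wells without cells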
Conditions: HT-1080-NT fibrosarcoma viability, CellTiter-Glo ATP luminescence, 48 h; activity, negative = less viability: at 46.1 µM (top of the series) unless noted
Outline: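 Luminescent CellTiter-Glo readout after 48 hours of compound exposure at 37 degrees C defined viability of HT-1080-NT cells. Activity was normalized to DMSO wells and cell-free media wells; concentration-response curves were fitted and assigned curve classes.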
In the case of CCc1cc2cccc(C)c2nc1SCC(=O)NC1CCCC1, the Potency is reported as inconclusive [rising, single point]. For Cc1ccc(O)c(NC(=O)Cc2ccc3ccccc3c2)c1, the Potency was inconclusive [cytotoxic, partial curve]. With CC1(C(=O)Nc2ccc3c(c2)OCO3)CCN1C(=O)Cc1ccc(-c2ccccc2)cc1 (stereo not drawn) the Potency was inconclusive [cytotoxic, full curve]. For CC(C)(C)c1cc(N2CCOCC2)n2ncc(-c3ccc(Cl)cc3)c2n1, the Potency was inconclusive [rising, full curve, poor fit]. With Cc1cccc(C(=O)Oc2cccc3c(O)cccc23)c1 the “activity, negative = less viability” value was inactive: -9.54%. In the case of CN1CCN(CC#CCn2c3ccccc3c3ccccc32)CC1, the Potency is reported as inconclusive [cytotoxic, single point]. For CC(=O)CC1c2cc(F)ccc2C=C(c2ccsc2)N1c1ccc(-c2cccnc2)cc1 (stereo not drawn), the Potency was inconclusive [cytotoxic, single point]. In the case of CCOC(=O)C1=C(COC(=O)/C=C/c2ccc(OC)c(OC)c2)NC(=O)NC1C (stereo not drawn), the “activity, negative = less viability” value is reported as inactive: -1.58%. In the case of CC(=O)N1CCOCCOCCN(C(C)=O)CCOCC1, the “activity, negative = less viability” value is reported as inactive: 18.3%. For CCOC(=O)C1=CCN(S(=O)(=O)c2ccccc2F)C1c1cccc(Br)c1 (stereo not drawn), the Potency was inconclusive [cytotoxic, single point]. With CCOc1ccccc1N1CCN(c2ncnc3scc(-c4ccc(OC)cc4)c23)CC1 the Potency was inconclusive [cytotoxic, single point]. With Cc1ccc(C(=O)c2cc([N+](=O)[O-])ccc2N2CC(C)OC(C)C2)cc1 (stereo not drawn) the Potency was active: 18.4 µM. In the case of CCn1c2ccccc2c2cc(NC(=O)c3cccc([N+](=O)[O-])c3)ccc21, the Potency is reported as inconclusive [cytotoxic, partial curve]. In the case of COc1cc(C2C(C#N)=C(N)N(Nc3ccccc3)C3=C2C(=O)CC(C)(C)C3)ccc1OCc1ccccc1 (stereo not drawn), the Potency is reported as inconclusive [cytotoxic, partial curve]. For COc1ccc(Br)cc1C(=O)Nc1ccccc1-c1ccccc1, the Potency was inconclusive [cytotoxic, single point]. In the case of Nc1ccccc1SSc1ccccc1N, the Potency is reported as inconclusive [cytotoxic, single point]. For CCc1nnc(NC(=O)c2nc(S(=O)(=O)Cc3ccc(C)cc3)ncc2Cl)s1, the Potency was active: 18.4 µM. In the case of Cc1ccc(CNC(=O)CC2(CC3=NS(=O)(=O)c4ccccc4N3)CCCC2)cc1, the “activity, negative = less viability” value is reported as inactive: -16.3%. For COCCNC(=S)N=Nc1c(O)[nH]c2c(C)cc(C)cc12, the activity, negative = less viability was inconclusive: -8.79% [cytotoxic]. For O=C(CSc1nc2ccsc2c(=O)n1NC(=O)c1ccccc1)Nc1nccs1, the Potency was inconclusive [cytotoxic, partial curve]. For COc1ccc(C(=O)NC(=S)NNC(=O)COc2ccccc2)cc1, the Potency was inconclusive [cytotoxic, partial curve]. For O=C(/C=C/c1ccccc1)N1CCC(c2ccccc2)C1 (stereo not drawn), the “activity, negative = less viability” value was inactive: 15.5%. In the case of COc1ccc(/C=C2\Sc3ccc(C(=O)NCc4cccnc4)cc3N(C)C2=O)cc1OC, the Potency is reported as active: 23.1 µM. With COc1ccc(CN(C)CC(=O)Nc2c(C)cccc2C)c(OC)c1 the “activity, negative = less viability” value was inactive: -5.84%. With Cc1ccc(C(=O)NC(C#N)=C(Cl)Cl)cc1 the Potency was active: 6.51 µM. With Cc1nc2cc(-c3ccc(Cl)cc3)nn2c(C)c1CCC(=O)NC(C)c1ccc2c(c1)OCCO2 (stereo not drawn) the Potency was inconclusive [cytotoxic, partial curve]. For O=c1[nH]c2cc3ccccc3cc2nc1-c1nnnn1Cc1ccccc1, the “activity, negative = less viability” value was inactive: 4.02%. In the case of O=C(O)c1cc(-c2ccccn2)n[nH]1, the Potency is reported as inconclusive [cytotoxic, full curve, poor fit]. In the case of O=C(/C=C\c1ccc2c(c1)OCO2)CC1(O)C(=O)Nc2ccccc21 (stereo not drawn), the Potency is reported as inconclusive [cytotoxic, single point]. For O=C(NC(=S)Nc1nc(-c2ccccc2)cs1)c1cncc(Br)c1, the Potency was inconclusive [cytotoxic, single point]. With CCC1Oc2ccccc2N(CC(=O)NC2CCCC2)C1=O (stereo not drawn) the “activity, negative = less viability” value was inactive: -6.94%. In the case of COc1cc(/C=N/NC(=O)COc2c(C)cc([N+](=O)[O-])cc2C)ccc1OC(=O)c1ccccc1Br, the “activity, negative = less viability” value is reported as inactive: -11.3%. With CCOC(=O)c1c(COc2ccccc2)oc2ccc(O)cc12 the “activity, negative = less viability” value was inactive: -20.8%. With CN(C)CCCN(C(=O)COc1ccccc1)c1nc2ccc(Cl)cc2s1 the Potency was inconclusive [cytotoxic, single point]. In the case of Cc1cc(C(O)c2ncc(-c3ccc(Cl)cc3)[nH]2)ccc1F (stereo not drawn), the Potency is reported as inconclusive [cytotoxic, single point]. In the case of CCOC(=O)c1cnc(SC2CC(=O)N(c3cccc(OC)c3)C2=O)nc1N (stereo not drawn), the “activity, negative = less viability” value is reported as inactive: 2.47%. For COc1ccc(NC(=O)C23CCC(C)(C(=O)C2)C3(C)C)cc1 (stereo not drawn), the “activity, negative = less viability” value was inactive: 12.1%. With Cc1ccc(S(=O)(=O)NCC(=O)OC(C)C(=O)NCc2ccc3c(c2)OCO3)cc1 (stereo not drawn) the “activity, negative = less viability” value was inactive: -1.41%. With COc1cc([N+](=O)[O-])cc(/C=N/NC(=O)Cn2nccc2C)c1O the Potency was inconclusive [cytotoxic, single point]. With CC(C)C(=O)NC(c1ccc([N+](=O)[O-])cc1)c1c(O)ccc2ccccc12 (stereo not drawn) the Potency was inconclusive [cytotoxic, single point]. In the case of O=P(COCCO)(c1ccccc1)c1ccccc1, the “activity, negative = less viability” value is reported as inactive: 7.48%. In the case of O=[N+]([O-])c1cccc2c1ccc1ncccc12, the Potency is reported as inconclusive [cytotoxic, partial curve]. In the case of Nc1c(C(=O)NCc2ccccc2)nnn1Cc1cccc(Cl)c1, the Potency is reported as active: 13 µM. In the case of COc1ccccc1N1CCN(C(=O)c2ccc3[nH]c4c(c3c2)CCCC4)CC1, the Potency is reported as inconclusive [cytotoxic, single point]. With O=c1nccc(N/N=C/c2ccccc2O)[nH]1 the Potency was active: 1.16 µM. In the case of CN[C@H]1CCc2cc(OC)c(OC)c(OC)c2-c2ccc(N(C)CC(OC)OC)c(=O)cc21, the Potency is reported as active: 4.11 µM. In the case of Cc1cc(N/N=C/c2c(O)ccc3ccccc23)nc(-c2ccccc2O)n1, the Potency is reported as inconclusive [cytotoxic, single point]. With CC(C)(C)c1ccc(C(=O)N2CCOC23CCCCC3)cc1 the “activity, negative = less viability” value was inactive: 0.579%. With Cc1cc2oc(=O)sc2cc1NS(=O)(=O)c1ccccc1 the Potency was inconclusive [cytotoxic, single point]. In the case of CCC(C)N1C(=O)CCC1C(=O)NCCc1ccc(Cl)cc1 (stereo not drawn), the activity, negative = less viability is reported as inconclusive: 31.5%. With Nc1nc(N)nc(-c2cc(O)ccc2O)n1 the “activity, negative = less viability” value was inactive: -2.22%. In the case of CC1=C(C(=O)Nc2ccc(C(=O)NCCC(C)C)cc2)SCCO1, the Potency is reported as inconclusive [rising, partial curve]. In the case of CCN(c1ccccc1)S(=O)(=O)c1cc(C(=O)Nc2ccc(F)c(F)c2)ccc1F, the Potency is reported as active: 14.6 µM. For O=C(Nc1ccc(Br)cc1)c1ccc(F)c(S(=O)(=O)NCc2cccs2)c1, the Potency was inconclusive [cytotoxic, single point]. In the case of CC(=O)Nc1cccc(C(=O)N2CCN(S(=O)(=O)Cc3ccccc3)CC2)c1, the “activity, negative = less viability” value is reported as inactive: 3.42%. For O=C(CCSc1ccccc1)NNC(=O)c1ccccc1F, the “activity, negative = less viability” value was inactive: 14.5%. In the case of CCCCn1c(-c2ccccc2C)nc2cc3[nH]c(=O)c(C(C)C)nc3cc21, the “activity, negative = less viability” value is reported as inactive: -26.4%. With CC1(C)CC2(CCO1)OC(=O)CC2C(=O)Nc1ccccc1Cl (stereo not drawn) the Potency was inconclusive [cytotoxic, single point]. In the case of O=C(CCl)Nc1cccc(S(=O)(=O)N2CCCCCC2)c1, the Potency is reported as inconclusive [cytotoxic, single point]. With COc1ccc(N2C(=O)CC(Sc3nc4c(cc3C#N)CCC4)C2=O)cc1 (stereo not drawn) the activity, negative = less viability was inconclusive: 30.2%. With Cn1cnc2c1c(=O)n(Cc1ccc(Cl)cc1Cl)c(=O)n2C the “activity, negative = less viability” value was inactive: 1.54%. For COc1cccc(-c2cc3nc(Nc4ccc(OC)c(OC)c4)n(C)c(=O)c3s2)c1, the Potency was inconclusive [cytotoxic, partial curve]. For COc1ccc(C=O)cc1C1=CC(=O)C[C@H](c2ccc(Cl)cc2)C1, the Potency was inconclusive [cytotoxic, single point]. With COc1cccc(CC(=O)Nc2ccc3c(c2)c(=O)n(C)n3-c2ccc(C(C)(C)C)cc2)c1 the Potency was inconclusive [cytotoxic, single point]. For OC(c1ccccc1)(c1nc(-c2cccc(F)c2)cs1)C(F)(F)F (stereo not drawn), the Potency was active: 18.4 µM. With Cc1cc(C)nc(/N=C(\N)Nc2ccc(-c3ccccc3)cc2)n1 the Potency was active: 16.4 µM. In the case of O=C(NCCc1ccccc1)c1cccc2c(-c3cccnc3)coc12, the activity, negative = less viability is reported as inconclusive: 2.7%. For O=C(Nc1ccccc1F)c1ccc2sc([C@H]3C[C@H](O)[C@@H](CO)O3)nc2c1, the Potency was inconclusive [rising, single point]. With COc1ccc(C(=O)/C=C/c2ccc(OC3CSC3)cc2)cc1 the Potency was inconclusive [cytotoxic, single point]. With CC1=CC2=NC(=O)/C(=C\c3cccn3CCOc3ccccc3C)C(=N)N2O1 the Potency was inconclusive [cytotoxic, single point]. With CCOC(=O)c1c(C)n(-c2ccc(C)cc2)c2c(C(C(C)=O)C(=O)O)c(Br)c(O)c(O)c12 (stereo not drawn) the Potency was inconclusive [cytotoxic, single point]. With CC(=O)Nc1ccc(S(=O)(=O)NCc2ccc(C)cc2)cc1 the Potency was inconclusive [cytotoxic, single point]. For COc1ccc2cc(C(=O)/C=C/c3cc(OC)c(OC)c(OC)c3)ccc2c1, the Potency was inconclusive [cytotoxic, partial curve, poor fit].

— PubChem BioAssay AID686970 (National Center for Advancing Translational Sciences (NCATS), 2013)
Potency means the concentration at half of the fitted maximal effect; tags describe the fitted curve by direction and shape.
